Experimental findings from the supplement of paper PMC11880418 are described below.

Counter-ions that a name gives are not always drawn. This is one part of the list. The data scatter; read single values as rough.

Assay in all cases: ALDHbr (CSC) cell proportion score relative to DMSO vehicle (ratio to DMSO); breast (SUM159) / gastric (MKN45) / pancreatic (PANC1) / colon cancer lines; ALDHbr cells have high ALDH activity and are rich in cancer stem cells (CSC); higher = more CSC (ALDHbr) cells remaining
Common to all, as to settings: 10 µM; 72 h

The subject of assay [1] is MKN45.
Assay [2] has as its system PANC1.
The subject of assay [3] is SUM159.
Assay [4] has as its system T84.
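Also: High-content imaging of ALDEFLUOR-stained cells with Hoechst-labelled nuclei in 384-well plates, triplicate wells, scored as Z-score against 0.1% DMSO vehicle, negative meaning fewer ALDHbr cells.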

As for `CCCC(C)(COC(N)=O)COC(=O)NC(C)C` (stereo not drawn) [Carisoprodol], the ALDHbr in assay [1] amounted to 0.936; in assay [2], 1; in assay [3], 0.959; in assay [4], 1.09.

In the case of `CC(=O)OCC1=C(C(=O)O)N2C(=O)[C@@H](N)[C@H]2SC1` [Cephalosporanic acid, 7-amino], the ALDHbr in assay [1] was determined as 1.03; in assay [2], 0.912; in assay [3], 1.06; in assay [4], 0.915.

Consider `C[N+]12CCC(CC1)C(OC(=O)C(O)(c1ccccc1)c1ccccc1)C2` (stereo not drawn) [Clidinium bromide], for which the ALDHbr in assay [1] came to 0.805; in assay [2], 1.07; in assay [3] it was 1.06; in assay [4], 0.954.

In the case of `CN1C[C@H](C(=O)N[C@]2(C)O[C@@]3(O)[C@@H]4CCCN4C(=O)[C@H](Cc4ccccc4)N3C2=O)C[C@@H]2c3cccc4[nH]cc(c34)C[C@H]21` [Dihydroergotamine tartrate], the ALDHbr came to 0.807 in assay [1], 0.725 in assay [2], 0.935 in assay [3] and 1.01 in assay [4].

For the compound `CNC(=O)Oc1ccc2c(c1)[C@]1(C)CCN(C)[C@@H]1N2C` [Eserine hemisulfate salt], the ALDHbr in assay [1] turned out to be 1.03; in assay [2] it was 0.874; in assay [3], 1.04; in assay [4], 0.993.

As for `Oc1ccc2c3c1O[C@H]1[C@@H](O)CC[C@@]4(O)[C@@H](C2)N(CC2CCC2)CC[C@]314` [Nalbuphine hydrochloride], the ALDHbr in assay [1] came to 0.853; in assay [2], 0.942; in assay [3], 1.07; in assay [4], 0.919.

Turning to `CN1C[C@H](CNC(=O)OCc2ccccc2)C[C@@H]2c3cccc4c3c(cn4C)C[C@H]21` [Metergoline], the ALDHbr turned out to be 0.953 in assay [1], 0.833 in assay [2], 0.215 in assay [3] and 0.268 in assay [4].

Take `CCC(COC(=O)c1cc(OC)c(OC)c(OC)c1)(c1ccccc1)N(C)C` (stereo not drawn) [Trimebutine]: the ALDHbr amounted to 0.758 in assay [1], 0.985 in assay [2], 0.684 in assay [3] and 1 in assay [4].

`CNC(C)(C)Cc1ccccc1` [Mephentermine hemisulfate]: the ALDHbr in assay [1] was 1.1; in assay [2], 0.818; in assay [3], 1.35; in assay [4], 1.37.

On to `Cc1cc(C(C#N)c2ccc(Cl)cc2)c(Cl)cc1NC(=O)c1cc(I)cc(I)c1O` (stereo not drawn) [Closantel], for which the ALDHbr in assay [1] came to 0.981; in assay [2], 1.03; in assay [3], 1.32; in assay [4], 0.984.

For the compound `NCC(O)c1ccc(O)cc1` (racemic) [(+,-)-Octopamine hydrochloride], the ALDHbr was determined as 0.966 in assay [1], 0.854 in assay [2], 1.48 in assay [3] and 0.951 in assay [4].

Regarding `C[C@H](N)[C@H](O)c1ccc(O)c(O)c1` [Levonordefrin], the ALDHbr in assay [1] is 1.03; in assay [2], 0.724; in assay [3] it was 2.29; in assay [4], 0.949.

For `C#CCN(C)[C@H](C)Cc1ccccc1` [Selegiline hydrochloride], the ALDHbr amounted to 1.07 in assay [1], 0.975 in assay [2], 1.02 in assay [3] and 1.05 in assay [4].

Consider `COc1ccc(C(=O)N2CCCC2=O)cc1` [Aniracetam], for which the ALDHbr in assay [1] was 0.973; in assay [2], 0.858; in assay [3] it was 0.974; in assay [4] it was 0.962.

With `CC(O)(CS(=O)(=O)c1ccc(F)cc1)C(=O)Nc1ccc(C#N)c(C(F)(F)F)c1` (stereo not drawn) [Bicalutamide], the ALDHbr in assay [1] amounted to 0.881; in assay [2], 0.959; in assay [3], 0.964; in assay [4] it was 1.21.

For `CC(C)C[C@H](CN)CC(=O)O` [Pregabalin], the ALDHbr in assay [1] amounted to 0.951; in assay [2], 0.98; in assay [3] it was 0.776; in assay [4] it was 0.94.

As for `C=C1C[C@@H]2[C@H](CC[C@]3(C)C(=O)CC[C@@H]23)[C@@]2(C)C=CC(=O)C=C12` [Exemestane], the ALDHbr in assay [1] was found to be 0.649; in assay [2], 0.712; in assay [3], 0.615; in assay [4], 0.524.
